Among all 7,900 compounds or so, about 400 (5.1%) showed an effect of 50% or more. Some of the results follow.
The molecules below were run against Parkinson's disease protein 7 (PARK7/DJ1) (human, UniProt Q99497) (assay: primary screen, percent inhibition; read as competition with a fluorescent probe by fluorescence polarization; higher = more effect of the substance). Conditions: 100 µM.
Sequence of Parkinson's disease protein 7 (PARK7/DJ1) (Q99497 whole entry, looked up, the tested form may be a part): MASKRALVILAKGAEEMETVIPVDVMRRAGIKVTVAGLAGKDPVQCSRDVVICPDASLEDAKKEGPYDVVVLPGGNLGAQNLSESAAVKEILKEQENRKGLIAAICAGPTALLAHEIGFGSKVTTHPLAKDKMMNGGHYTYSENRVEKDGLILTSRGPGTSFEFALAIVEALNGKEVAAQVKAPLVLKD
Outline: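 Fluorescence-polarization probe displacement (JYQ-107, 20 nM final, 2 h) after 2 h preincubation of PARK7 (0.2 μM final) with each fragment at 100 μM final. Read-out ex/em 480/520 nm; remaining activity derived from FP signal loss relative to reference controls.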
Molecule `C=CC(=O)NC1CCN(Cc2cccs2)CC1` has an Inhibition % of 9.36%. For `CC1(C)OB(c2cccc(-n3cnnn3)c2)OC1(C)C`, the Inhibition % was 2.2%. `Cc1cc(C)nc(NC#N)n1` was tested, and the Inhibition % was 4.54%. Molecule `CCOc1ccc(C2CCCN2C(=O)CCl)cc1` (centres unmarked) has an Inhibition % of 28.1%. In the case of `Cl.OB(O)c1ccc2cnccc2c1`, the Inhibition % is reported as 4.5%. `CC(C)(C)c1nc(Cn2cnc(C#N)n2)cs1` gave an Inhibition % of 6.92%. `C=CC(=O)N1CC(C)(C)C1c1ccco1` (centres unmarked) was tested, and the Inhibition % was 8.16%. Work on `CSc1cc(B2OC(C)(C)C(C)(C)O2)ccc1N` yielded an Inhibition % of 8.09%. Molecule `N#Cc1cccc(O)n1` has an Inhibition % of 1.98%. `O=C(NNS(=O)(=O)c1cccc(S(=O)(=O)F)c1)C1CCC1` showed an Inhibition % of 99.9%. Work on `CN(Cc1cccc(C(F)(F)F)c1)C(=O)CCl` yielded an Inhibition % of 37.1%. Molecule `C=CC(=O)N1CCC(OC)C(C)C1` (centres unmarked) has an Inhibition % of 4.37%. In the case of `O=C(CCl)NCc1ccc(F)cc1C(F)(F)F`, the Inhibition % is reported as 13.5%. Work on `CC(C)CC(=O)NNS(=O)(=O)c1cccc(S(=O)(=O)F)c1` yielded an Inhibition % of 98.2%. `C=CC(=O)N(CC)Cc1nccs1` showed an Inhibition % of 6.6%. `C=CC(=O)NC(C)C1CCCCC1C` (centres unmarked) showed an Inhibition % of 2.06%. `O=C(CCl)Nc1nc(-c2ccco2)cs1` was tested, and the Inhibition % was 21.8%. In the case of `Cc1cc(F)cc(C(=O)N2CCC(C3OCCO3)CC2)c1`, the Inhibition % is reported as 2.1%. Molecule `Cc1csc(NC(=O)CS)n1` has an Inhibition % of 71.5%. For `CC(NC(=O)C(C#N)=Cc1cnn(C)c1)c1ccccc1` (centres unmarked), the Inhibition % was 6.97%. `C=CC(=O)NC1(Cc2ccc(F)cc2)CC1` gave an Inhibition % of 7.92%. For `Cn1ccc(COc2ccc(B3OC(C)(C)C(C)(C)O3)cc2)n1`, the Inhibition % was 4.59%. In the case of `O=C(CN1CCSC1=O)NC1CCN2CCCCC12` (centres unmarked), the Inhibition % is reported as 10.2%. `C=CC(=O)N1CCC(Cc2ccccc2OC)CC1` showed an Inhibition % of 7.23%. For `O=C(CCl)Nc1cc(C(F)(F)F)ccc1-n1cncn1`, the Inhibition % was 32.5%. For `C=CC(=O)N1CCC(CN)CC1.Cl`, the Inhibition % was 2.16%. `ClCCCc1nnnn1-c1ccccc1` was tested, and the Inhibition % was 8.31%. `O=C(CCl)Nc1nnc(-c2ccco2)o1` showed an Inhibition % of 24.5%. `CC1(C)OB(c2cc3ccoc3cc2Cl)OC1(C)C` was tested, and the Inhibition % was 2.39%. Work on `CCc1ccc(OC)c(S(=O)(=O)n2ccnc2CC)c1` yielded an Inhibition % of 29%. With `Cl.O=C(CCl)NCc1ccccc1CN1CCOCC1` the Inhibition % was 3.64%. For `C=CCn1c(S)nc2sccc2c1=O`, the Inhibition % was 30.7%. For `C=CC(=O)NCC1(C)CC1(F)F` (centres unmarked), the Inhibition % was 10.8%. With `CN1CN=C(S)NC1` the Inhibition % was 3.57%. `COc1ccc(C2CCCN2C(=O)CCl)cc1` (centres unmarked) showed an Inhibition % of 9.8%.

— publication PMC9574860, “Chemical Toolkit for PARK7: Potent, Selective, and High-Throughput” (Journal of Medicinal Chemistry, 2022)
